Assay results taken from the supplement of paper PMC4604168 (melanoma cell lines).
The list shows a part of the results. Repeats are few or missing, and single values can be far off.

How the values were obtained:
Test in all cases: cell count relative to DMSO control; melanoma cells; higher = more viable cells
Settings in all cases: library dose: standard library concentration; 72 h; first compound 2 µM
[1] = test system: G361
[2] = test system: IPC-298
[3] = test system: IST-MEL1
[4] = test system: LB2518-MEL
[5] = test system: LOXIMVI
[6] = test system: MEL-HO
[7] = test system: MZ2-MEL
[8] = test system: MeWo
[9] = test system: RPMI7951
[10] = test system: RVH-421
[11] = test system: SkMel28
[12] = test system: SkMel2
[13] = test system: SkMel30
[14] = test system: SkMel5
[15] = test system: UACC257
[16] = test system: UACC62
[17] = test system: WM115
[18] = test system: WM1716
[19] = test system: WM1745
[20] = test system: WM3526
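Also: cells treated in 1,536-well plates, then fixed and DAPI-stained, with nuclei counted from automated high-throughput microscope images.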

Row | SMILES | cell count [1] | cell count [2] | cell count [3] | cell count [4] | cell count [5] | cell count [6] | cell count [7] | cell count [8] | cell count [9] | cell count [10] | cell count [11] | cell count [12] | cell count [13] | cell count [14] | cell count [15] | cell count [16] | cell count [17] | cell count [18] | cell count [19] | cell count [20]
1 | Cn1sc(=O)n(Cc2ccccc2)c1=O + O=C(O)c1ccc(-c2c[nH]c3ncc(-c4ccccc4)cc23)cc1C1CCCC1 [GSK650394] (partner dose 0.8 µM) | 55.9% | 96% | 231% | 109% | 79.8% | 78.2% | 93% | 86.4% | 50.5% | 99.5% | 79.5% | 79.5% | 84.7% | 94.3% | 72.5% | 90% | 73.8% | 76.4% | 83.7% | 82.9%
2 | CCCCCCCCCCCCCCCCCCOP(=O)([O-])OC1CC[N+](C)(C)CC1 [Perifosine] + COc1cc(Nc2ncc(F)c(Nc3ccc4c(n3)NC(=O)C(C)(C)O4)n2)cc(OC)c1OC [Tamatinib] (partner dose 2 µM) | 68% | 16.7% | 65.2% | 5.55% | 19.2% | 61.9% | 18.7% | 72.9% | 7.18% | 75.7% | 56.6% | 10.4% | 73.2% | 51.2% | 90.1% | 71.8% | 114% | 58.3% | 18.9% | 72.5%
3 | CCCCCCCCCCCCCCCCCCOP(=O)([O-])OC1CC[N+](C)(C)CC1 [Perifosine] + O=C(Nc1cccc(Cl)c1)Nc1ncc(CCNc2ncnc3ccsc23)s1 [SNS314] (partner dose 0.004 µM) | 61.7% | 83.7% | 54.7% | 79.9% | 58.1% | 76.2% | 79.9% | 59% | 31.2% | 83.2% | 50.6% | 82.4% | 92.7% | 87.1% | 82.6% | 77% | 41.6% | 44.8% | 49% | 74.4%
4 | CCCCCCCCCCCCCCCCCCOP(=O)([O-])OC1CC[N+](C)(C)CC1 [Perifosine] + CC(=O)c1c(C)c2cnc(Nc3ccc(N4CCNCC4)cn3)nc2n(C2CCCC2)c1=O [palbociclib] (partner dose 0.2 µM) | 67.8% | 74.2% | 83.7% | 73.1% | 69.3% | 89.2% | 73.3% | 65.2% | 29.5% | 74.7% | 35.7% | 68% | 74.4% | 79.5% | 74.3% | 68.4% | 67.9% | 41% | 73.1% | 55.5%
5 | CCCCCCCCCCCCCCCCCCOP(=O)([O-])OC1CC[N+](C)(C)CC1 [Perifosine] + COCC[n+]1c2c(n(Cc3cnccn3)c1C)C(=O)c1ccccc1C2=O [YM155] (partner dose 0.002 µM) | 92.2% | 61.2% | 43.6% | 34.4% | 45.9% | 95% | 30.3% | 69.4% | 25.6% | 104% | 50.3% | 53% | 84.2% | 43.2% | 23.9% | 63.2% | 97.9% | 64.5% | 89.7% | 46.4%
6 | CCCCCCCCCCCCCCCCCCOP(=O)([O-])OC1CC[N+](C)(C)CC1 [Perifosine] + C=C(c1ccc(C(=O)O)cc1)c1cc2c(cc1C)C(C)(C)CCC2(C)C [Bexarotene] (partner dose 10 µM) | 86.1% | 75% | 83.2% | 114% | 91.8% | 88.1% | 66.8% | 95.1% | 42.8% | 110% | 82.6% | 83% | 76.5% | 76.7% | 80.2% | 101% | 76.1% | 77.8% | 81.2% | 81.9%
7 | C[C@@H](N)c1ccc(C(=O)Nc2ccnc3[nH]ccc23)cc1 + Clc1ccc(Nc2nnc(Cc3ccncc3)c3ccccc23)cc1 [vatalanib] (partner dose 10 µM) | 75.9% | 68.6% | 76.2% | 93.1% | 89.4% | 32.5% | 43.2% | 70.6% | 52.6% | 29.5% | 75.7% | 90.8% | 104% | 45.5% | 56% | 58.4% | 98% | 49.8% | 44% | 92.7%
8 | CCCCCCCCCCCCCCCCCCOP(=O)([O-])OC1CC[N+](C)(C)CC1 [Perifosine] + Cn1cnc2c(F)c(Nc3ccc(Br)cc3Cl)c(C(=O)NOCCO)cc21 [selumetinib] (partner dose 0.075 µM) | 81.2% | 54.8% | 79.2% | 62.8% | 90.2% | 81.7% | 82.3% | 95.1% | 24.9% | 73.2% | 59.4% | 69.3% | 45.2% | 84.2% | 114% | 61.5% | 74.8% | 79.5% | 90.6% | 71.3%
9 | Cn1sc(=O)n(Cc2ccccc2)c1=O + Cn1c(=O)n(-c2ccc(C(C)(C)C#N)cc2)c2c3cc(-c4cnc5ccccc5c4)ccc3ncc21 [NVP-BEZ235] (partner dose 0.02 µM) | 60.9% | 84.5% | 70.5% | 78.6% | 51.3% | 63.4% | 80.1% | 74.4% | 66.8% | 81.8% | 54.4% | 65.1% | 57.4% | 73.5% | 101% | 78.1% | 77.7% | 68.8% | 92.8% | 90.9%
10 | Cn1sc(=O)n(Cc2ccccc2)c1=O + O=c1cc(-c2cccc3c2Sc2ccccc2S3)oc(N2CCOCC2)c1 [KU55933] (partner dose 5 µM) | 91.9% | 108% | 99.3% | 103% | 62.7% | 92.6% | 100% | 86.3% | 80.6% | 96.6% | 61.8% | 85.1% | 98.9% | 95.4% | 110% | 54.8% | 95.9% | 98.4% | – | 80.1%
